Measured values taken from patent US20240254245A1 (JIANGSU HENGRUI PHARMACEUTICALS, published 2024).

Experiments:
[1] = biological target: T1, human RANKL protein (Sino Biological, 11682-HNCH) (human, UniProt O14788 136-317, limits assumed); assay: cell-based or functional assay
T1 sequence (looked up): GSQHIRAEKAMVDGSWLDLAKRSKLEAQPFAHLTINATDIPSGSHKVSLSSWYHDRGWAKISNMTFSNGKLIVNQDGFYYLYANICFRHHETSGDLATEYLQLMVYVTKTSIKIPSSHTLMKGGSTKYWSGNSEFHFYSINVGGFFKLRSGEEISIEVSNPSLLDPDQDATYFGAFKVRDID

[2] = biological target: T1, human RANKL protein (Sino Biological, …); assay: cell-based or functional assay; remark: listed apart in the source
[3] = biological target: T2, human NGF protein (Sino biological, 11050-HNAC) (human, UniProt P01138 fragment); assay: cell-based or functional assay
T2 sequence (P01138 122-241 limits assumed): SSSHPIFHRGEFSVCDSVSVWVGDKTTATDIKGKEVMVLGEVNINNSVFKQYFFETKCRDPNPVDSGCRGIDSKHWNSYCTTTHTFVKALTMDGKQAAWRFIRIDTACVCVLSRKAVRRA

[4] = biological target: T1, human RANKL protein (Sino Biological, …); assay: SPR (Biacore), antibody captured on Protein A chip
Protocol: (§1) Reaction signals were detected in real time by using Biacore, and binding and dissociation curves were obtained. After dissociation was complete in each cycle, the biochip was washed and regenerated with a glycine-hydrochloric acid regeneration solution (GE, BR-1003-54) having a pH of 1.5. Fitting was performed on the experimental data using BIAevaluation version 4.1 software with a 1:1 model, and affinity values were obtained.

[5] = biological target: T1, human RANKL protein (Sino Biological, …); assay: ELISA on coated antigen (1 ug/mL), anti-human Fc-HRP
Protocol: (§2) The antigen was diluted to 1 μg/mL with a pH 7.4 PBS buffer (BasalMedia, B320) and added to a 96-well microplate (Coming, 9018) at 100 μL/well, and the plate was incubated overnight at 4° C. After the liquid was discarded, a 5% skim milk (BD, 232100) blocking solution diluted with PBS was added at 300 μL/well, and the plate was incubated at 37° C. for 2 h for blocking. After the blocking was complete, the blocking solution was discarded, and the plate was washed 3 times with a PBST buffer (pH 7.4 PBS containing 0.1% tween-20). Then a bispecific antibody diluted with a sample diluent (pH 7.4 containing 1% BSA) to different concentrations was added at 100 μL/well, and the plate was incubated in a 37° C. incubator for 1 h. After the incubation was complete, the plate was washed 3 times with PBST. An HRP-labeled anti-human Fc secondary antibody (Abcam, ab97225) diluted with the sample diluent was added at 100 μL/well, and the plate was incubated at 37° C. for 1 h. After the plate was washed 3 times with PBST, TMB chromogenic substrate (KPL, 5120-0077) was added at 100 μL/well, and the plate was incubated at room temperature for 10 to 15 min. 50 μL of 1 M H₂SO₄ was added to each well to stop the reactions. The absorbance values at 450 nm were taken using a microplate reader, and the EC50 values for binding of the bispecific antibody to the antigens were calculated.

[6] = biological target: T3, monkey RANKL (Sino Biological, 90301-C01H) (monkey); assay: as above
T3 construct: Bought protein
Protocol: as §2

[7] = biological target: T4, murine RANKL (R&D Systems, 462-TR/CF) (murine, UniProt O35235 72-316, limits assumed); assay: as above
T4 construct: Bought protein
T4 sequence (looked up): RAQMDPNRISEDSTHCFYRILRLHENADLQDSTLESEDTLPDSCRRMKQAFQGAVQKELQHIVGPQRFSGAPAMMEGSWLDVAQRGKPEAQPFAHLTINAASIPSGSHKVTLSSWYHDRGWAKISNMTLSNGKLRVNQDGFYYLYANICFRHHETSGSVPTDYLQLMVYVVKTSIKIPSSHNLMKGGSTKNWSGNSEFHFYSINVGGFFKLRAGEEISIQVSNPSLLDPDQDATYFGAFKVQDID
Protocol: as §2

[8] = biological target: T2, human NGF protein (Sino biological, …); assay: as above
Protocol: as §2

[9] = biological target: T5, murine NGF (Sino Biological, 50385-MNAC) (murine, UniProt P01139 122-241); assay: as above
T5 construct: Bought protein
T5 sequence (P01139 122-241 limits assumed): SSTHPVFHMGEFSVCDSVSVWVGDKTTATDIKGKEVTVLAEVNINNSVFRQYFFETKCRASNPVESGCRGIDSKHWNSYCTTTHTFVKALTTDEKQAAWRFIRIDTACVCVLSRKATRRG
Protocol: as §2

[10] = biological target: T1, human RANKL protein (Sino Biological, …); assay: SPR (Biacore), antibody captured on Protein A chip, antigen in flow, 1:1 fit
Protocol: as §1

[11] = biological target: T2, human NGF protein (Sino biological, …); assay: as above
Protocol: as §1

[12] = biological target: T2, human NGF protein (Sino biological, …); assay: blocking ELISA: antibody titrated with fixed biotin-human NGF, on coated human TrkA
Protocol: (§3) The plate was incubated at 37° C. for 1.5 h. After the incubation was complete, the plate was washed 3 times with PBST. Streptavidin-HRP (Invitrogen, 434323, diluted at 1:4000) was added at 100 μL/well, and the plate was incubated at 37° C. for 1 h. The supernatant was removed. After the plate was washed 3 times with PBST, TMB chromogenic substrate (KPL, 5120-0077) was added at 100 μL/well, and the plate was incubated at room temperature for 10 to 15 min. […] The absorbance values at 450 nm were taken using a microplate reader.

[13] = biological target: T1, human RANKL protein (Sino Biological, …); assay: blocking ELISA: antibody titrated with fixed biotin-human RANKL, on coated human RANK
Protocol: as §3

B1: Bispecific antibody 1 (bispecific antibody, human IgG4 S228P, kappa)
heavy: EVQLLESGGGLVQPGGSLRLSCAASGFTFSSYAMSWVRQAPGKGLEWVSGITGSGGSTYYADSVKGRFTISRDNSKNTLYLQMNSLRAEDTAVYYCVKDPGTTSIMSWFDPWGQGTLVTVSSASTKGPQVQLQESGPGLVKPSETLSLTCTVSGFSLIGYDLNWIRQPPGKGLEWIGIIWGDGTTDYNSAVKSRVTISKDTSKNQFSLKLSSVTAADTAVYYCARGGYWYATSYYFDYWGQGTLVTVSSASTKGPSVFPLAPCSRSTSESTAALGCLVKDYFPEPVTVSWNSGALTSGVHTFPAVLQSSGLYSLSSVVTVPSSSLGTKTYTCNVDHKPSNTKVDKRV[sequence of human IgG4 Fc with S228P (EU numbers) omitted]
light: EIVLTQSPGTLSLSPGERATLSCRASQSVRGRYLAWYQQKPGQAPRLLIYGASSRATGIPDRFSGSGSGTDFTLTISRLEPEDFAVFYCQQYGSSPRTFGQGTKVEIKTVAAPDIQMTQSPSSLSASVGDRVTITCRASQSISNNLNWYQQKPGKAPKLLIYYTSRFHSGVPSRFSGSGSGTDFTFTISSLQPEDIATYYCQQEHTLPYTFGQGTKLEIKRTVAAPSVFIFPPSDEQLKSGTASVVCLLNNFYPREAKVQWKVDNALQSGNSQESVTEQDSKDSTYSLSSTLTLSKADYEKHKVYACEVTHQGLSSPVTKSFNRGEC
notes: second chain = RANKL VL - linker TVAAP - NGF VL - kappa constant region; also called anti-RANKL/NGF bispecific antibody; DVD-IgG
B1 was tested, and the “osteoclast differentiation-inhibiting activity, fold relative to denosumab” value [1] was 3.3 times, the “osteoclast differentiation-inhibiting activity (Raw264.7 cells + human RANKL, TRAP assay) IC50” value [2] was 1.19 nM and the “TF-1 cell proliferation-inhibiting activity (TF-1 cells + human NGF, Cell-titer Glo) IC50” value [3] was 3.16 nM. The “affinity, fold of that of denosumab” value [4] was 3.8 times, the EC50 [5] was 0.0624 nM and the EC50 [6] was 0.467 nM. For the same binder, the binding result [7] was “no binding”, the EC50 [8] was 12.3 nM and the EC50 [9] was 4.34 nM. The Kd [10] was 3.89 nM, the koff [10] was 8.77e-05 s⁻¹ and the kon [10] was 22500 M⁻¹ s⁻¹. For the same binder, the Kd [11] was 56.1 nM, the koff [11] was 6.33e-05 s⁻¹ and the kon [11] was 1130 M⁻¹ s⁻¹. For the same binder, the IC50 [12] was 102 nM and the IC50 [13] was 0.323 nM.
